{
  "source": "the antibiotic and cytotoxicity screens of Wong et al. (2023)",
  "note": "The other results are listed elsewhere or left out.",
  "data": [
    {"system": "HepG2", "experiment": "cytotoxicity call (relative viability < 0.9)", "conditions": "10 µM", "values": [
      {"smiles": "Cc1noc(C)c1NC(=O)N(C)C[C@H]1OCCCC[C@@H](C)Oc2ccc(NS(=O)(=O)c3ccc(F)cc3)cc2C(=O)N([C@@H](C)CO)C[C@H]1C", "cytotoxicity call": "inactive"},
      {"smiles": "Cc1ccc(S(=O)(=O)N(C)C[C@H]2Oc3ncc(-c4ccncc4)cc3C(=O)N([C@H](C)CO)C[C@@H]2C)cc1", "cytotoxicity call": "inactive"},
      {"smiles": "C[C@@H]1CN([C@H](C)CO)C(=O)c2cccc(NS(=O)(=O)c3cn(C)cn3)c2O[C@@H]1CN(C)Cc1ccc(C(=O)Nc2ccccc2N)cc1", "cytotoxicity call": "inactive"},
      {"smiles": "Cc1ccc(S(=O)(=O)Nc2ccc3c(c2)C(=O)N([C@@H](C)CO)C[C@@H](C)[C@@H](CN(C)C(=O)c2ccccc2)OCCCC[C@@H](C)O3)cc1", "cytotoxicity call": "inactive"},
      {"smiles": "CN(C)CCCNc1ncnc(N)c1[N+](=O)[O-]", "cytotoxicity call": "inactive"},
      {"smiles": "COCC(=O)N(C)C[C@H]1Oc2cc(-c3ccc(C#N)cc3)ccc2S(=O)(=O)N([C@H](C)CO)C[C@@H]1C", "cytotoxicity call": "inactive"},
      {"smiles": "CCS(=O)(=O)Nc1ccc2c(c1)C(=O)N(C)C[C@@H](OC)[C@@H](C)CN(CCC(F)(F)F)[C@H](C)CO2", "cytotoxicity call": "inactive"},
      {"smiles": "CC(C)NC(=O)N(C)C[C@@H]1Oc2ncc(-c3ccc(C(=O)N(C)C)cc3)cc2C(=O)N([C@@H](C)CO)C[C@@H]1C", "cytotoxicity call": "inactive"},
      {"smiles": "CC(C)(O)C#Cc1ccc([C@H]2[C@H](CO)N3CCCCN(S(C)(=O)=O)C[C@@H]23)cc1", "cytotoxicity call": "inactive"},
      {"smiles": "C[C@H](CO)N1C[C@H](C)[C@H](CN(C)C(=O)CCN2CCCCC2)Oc2ncc(C#CCN(C)C)cc2C1=O", "cytotoxicity call": "inactive"},
      {"smiles": "C[C@@H]1CN([C@H](C)CO)C(=O)Cc2cc(NC(=O)Cn3cnnn3)ccc2O[C@@H]1CN(C)Cc1ccncc1", "cytotoxicity call": "inactive"},
      {"smiles": "C[C@@H]1CCCCO[C@H](CN(C)S(=O)(=O)c2ccc(F)cc2)[C@@H](C)CN([C@H](C)CO)C(=O)c2cc(NC(=O)CCCCCC(=O)Nc3ccccc3N)ccc2O1", "cytotoxicity call": "inactive"},
      {"smiles": "Cc1ccc(S(=O)(=O)N(C)C[C@@H]2OCCCC[C@@H](C)Oc3ccc(NC(=O)CCCCCC(=O)Nc4ccccc4N)cc3C(=O)N([C@H](C)CO)C[C@@H]2C)cc1", "cytotoxicity call": "inactive"},
      {"smiles": "CCN(CCO)CCCOc1ccc2c(Nc3cc(CC(=O)Nc4cccc(F)c4)n[nH]3)ncnc2c1", "cytotoxicity call": "inactive"},
      {"smiles": "COc1ccc(C(=O)Nc2ccc(CN3C(=O)[C@@]4(O[C@@H](CC(=O)N(CCO)Cc5ccccc5)[C@H]([Si](C)(C)c5ccc(OC)cc5)[C@H]4C)c4ccccc43)cc2)cc1", "cytotoxicity call": "inactive"},
      {"smiles": "O=C(C[C@@H]1CC[C@@H]2[C@H](COC[C@@H](O)CN2S(=O)(=O)c2ccc(Cl)cc2)O1)NCCN1CCCC1", "cytotoxicity call": "inactive"},
      {"smiles": "Cc1ccc(S(=O)(=O)N[C@H]2CC[C@H](CCNC(=O)CN3CCOCC3)O[C@H]2CO)cc1", "cytotoxicity call": "inactive"},
      {"smiles": "COc1ccc(C#Cc2ccc3c(c2)[C@H]2[C@H](CCN2C(=O)Nc2ccc(C(F)(F)F)cc2)[C@@H](CO)N3C)cc1", "cytotoxicity call": "inactive"},
      {"smiles": "C[C@@H]1CN([C@H](C)CO)C(=O)Cc2cc(NC(=O)CCN3CCOCC3)ccc2O[C@H]1CN(C)Cc1ccc2c(c1)OCO2", "cytotoxicity call": "inactive"},
      {"smiles": "C[C@H](CO)N1C[C@H](C)[C@H](CN(C)C(=O)C2CCCCC2)OCCCC[C@H](C)Oc2ccc(NC(=O)C3CCCCC3)cc2C1=O", "cytotoxicity call": "inactive"},
      {"smiles": "C[C@@H]1CN([C@H](C)CO)C(=O)c2cccc(NC(=O)Nc3ccc(C(F)(F)F)cc3)c2O[C@H]1CN(C)Cc1ccc(-c2ccccc2)cc1", "cytotoxicity call": "inactive"},
      {"smiles": "C[C@@H]1CN([C@H](C)CO)C(=O)Cc2cc(NC(=O)CCN3CCOCC3)ccc2O[C@H]1CN(C)Cc1ccc(C(=O)Nc2ccccc2N)cc1", "cytotoxicity call": "inactive"},
      {"smiles": "C[C@H](CO)N1C[C@H](C)[C@@H](CN(C)S(C)(=O)=O)OCCCC[C@H](C)Oc2ccc(NS(=O)(=O)c3cn(C)cn3)cc2C1=O", "cytotoxicity call": "inactive"},
      {"smiles": "C[C@@H]1CCCCO[C@H](CN(C)S(=O)(=O)c2ccc(Cl)cc2)[C@H](C)CN([C@H](C)CO)C(=O)c2cc(NC(=O)Cc3ccccc3)ccc2O1", "cytotoxicity call": "active"},
      {"smiles": "N=C(N)NCCC[C@@H](NC(=O)[C@@H]1CCCN1C(=O)[C@H]1CSSCCC(=O)N[C@@H](Cc2ccc(O)cc2)C(=O)N[C@@H](Cc2ccccc2)C(=O)N[C@@H](CCC(N)=O)C(=O)N[C@@H](CC(N)=O)C(=O)N1)C(=O)NCC(N)=O", "cytotoxicity call": "inactive"},
      {"smiles": "CNC[C@@H]1OCCCC[C@@H](C)Oc2ccc(NC(=O)Nc3cccc4ccccc34)cc2C(=O)N([C@H](C)CO)C[C@@H]1C", "cytotoxicity call": "inactive"},
      {"smiles": "O=C(C[C@@H]1C=C[C@H](NC(=O)Cc2ccccn2)[C@@H](CO)O1)NCCc1ccncc1", "cytotoxicity call": "inactive"},
      {"smiles": "C[C@H]1CN([C@@H](C)CO)C(=O)c2cc(C#CCN(C)C)cnc2O[C@H]1CN(C)Cc1ccc2c(c1)OCO2", "cytotoxicity call": "inactive"},
      {"smiles": "O=C(C[C@H]1C[C@@H]2c3cc(NS(=O)(=O)c4ccc(F)cc4)ccc3O[C@@H]2[C@@H](CO)O1)NCc1ccccn1", "cytotoxicity call": "inactive"},
      {"smiles": "CCNC(=O)C[C@H]1C=C[C@H](NC(=O)C2CC2)[C@H](CO)O1", "cytotoxicity call": "inactive"},
      {"smiles": "C[C@H](CO)N1C[C@H](C)[C@H](CN(C)C(=O)Nc2ccc(C(F)(F)F)cc2)Oc2c(NC(=O)Nc3ccccc3)cccc2C1=O", "cytotoxicity call": "inactive"},
      {"smiles": "CC(C)CS(=O)(=O)N1CCC2(CC1)[C@H]1CN(c3ncccn3)C[C@@H]1C(=O)N2C", "cytotoxicity call": "inactive"},
      {"smiles": "C[C@H]1CN([C@@H](C)CO)C(=O)c2cc(NS(=O)(=O)c3cccs3)ccc2O[C@@H]1CN(C)Cc1ccc(Cl)c(Cl)c1", "cytotoxicity call": "inactive"},
      {"smiles": "Cn1c(=O)n2n(c1=O)[C@H](C1CC1)C=C1CN3[C@@H]([C@H](Cc4ccccc4)OC(=O)[C@@H]3COC(=O)NCCCCCC(=O)NO)[C@@H]12", "cytotoxicity call": "inactive"},
      {"smiles": "COc1cccc(S(=O)(=O)N[C@@H]2CC[C@@H](CC(=O)NC3CCC3)O[C@@H]2CO)c1", "cytotoxicity call": "inactive"},
      {"smiles": "O=C(C[C@@H]1CC[C@H]2[C@@H](COC[C@@H](O)CN2S(=O)(=O)c2cccc(F)c2)O1)NCCCN1CCOCC1", "cytotoxicity call": "inactive"},
      {"smiles": "C[C@@H]1CN([C@H](C)CO)C(=O)c2cc(NC(=O)Nc3ccc(C(F)(F)F)cc3)ccc2O[C@@H](C)CCCCO[C@@H]1CN(C)Cc1ccccc1", "cytotoxicity call": "active"},
      {"smiles": "CC(C=CC1=C(C)CCCC1(C)C)=CC=CC(C)=CCO", "cytotoxicity call": "inactive"},
      {"smiles": "C[C@@H]1CCCCO[C@@H](CN(C)Cc2ccc(C(F)(F)F)cc2)[C@@H](C)CN([C@H](C)CO)C(=O)c2cc(NC(=O)CCCCCC(=O)Nc3ccccc3N)ccc2O1", "cytotoxicity call": "inactive"},
      {"smiles": "CN(C)CC#Cc1ccc([C@H]2[C@H](CO)N3C(=O)CN(C(=O)CN(C)C)C[C@@H]23)cc1", "cytotoxicity call": "inactive"}
    ]}
  ]
}
